Assay results from patent US20230192795A1 (Hoffmann-La Roche, published 2023).

T1: IL-7Rα/IL-2Rγ on human T cells (human, UniProt P16871 21-459; P31785 23-369)
T1 sequence (looked up) 1: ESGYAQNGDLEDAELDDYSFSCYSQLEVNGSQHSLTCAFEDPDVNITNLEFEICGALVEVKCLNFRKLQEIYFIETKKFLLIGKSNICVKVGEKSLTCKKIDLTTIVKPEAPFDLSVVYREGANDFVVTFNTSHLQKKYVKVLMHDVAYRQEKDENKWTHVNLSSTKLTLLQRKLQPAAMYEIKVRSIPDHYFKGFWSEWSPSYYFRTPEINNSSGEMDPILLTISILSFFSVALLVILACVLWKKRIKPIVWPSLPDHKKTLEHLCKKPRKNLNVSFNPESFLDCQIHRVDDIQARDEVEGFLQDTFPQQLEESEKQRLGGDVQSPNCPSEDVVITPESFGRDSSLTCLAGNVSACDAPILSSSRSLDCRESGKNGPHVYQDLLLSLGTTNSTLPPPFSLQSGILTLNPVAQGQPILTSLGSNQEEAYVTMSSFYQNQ
T1 sequence (looked up) 2: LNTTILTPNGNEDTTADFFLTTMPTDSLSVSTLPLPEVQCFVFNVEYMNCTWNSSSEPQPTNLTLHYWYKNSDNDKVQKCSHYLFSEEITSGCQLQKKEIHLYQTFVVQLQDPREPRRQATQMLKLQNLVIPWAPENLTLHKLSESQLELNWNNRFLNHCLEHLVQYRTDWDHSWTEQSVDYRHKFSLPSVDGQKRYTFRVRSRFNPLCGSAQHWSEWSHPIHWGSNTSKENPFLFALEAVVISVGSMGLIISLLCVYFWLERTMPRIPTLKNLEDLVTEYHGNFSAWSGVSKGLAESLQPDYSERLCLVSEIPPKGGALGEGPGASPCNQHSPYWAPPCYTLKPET

T2: murine IL7Ra-IL2Rg-Fc biotin (murine, UniProt P16872 21-239; P34902 23-263)
T2 construct: extracellular domain; Heterodimer of the ECD of IL7Ra and IL2Rg chains fused to an Fc; also called murine IL7Ralpha-IL2Rgamma-Fc heterodimer; murine IL7 receptor; not shown: Fc part and avi tag; Fc part
T2 sequence (looked up) 1: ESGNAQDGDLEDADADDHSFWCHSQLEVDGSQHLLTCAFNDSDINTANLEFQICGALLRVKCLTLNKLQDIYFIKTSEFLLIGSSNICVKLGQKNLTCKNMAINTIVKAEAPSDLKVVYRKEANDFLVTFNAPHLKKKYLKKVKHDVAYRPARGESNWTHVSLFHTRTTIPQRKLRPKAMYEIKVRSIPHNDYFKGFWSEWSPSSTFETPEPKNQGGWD
T2 sequence (looked up) 2: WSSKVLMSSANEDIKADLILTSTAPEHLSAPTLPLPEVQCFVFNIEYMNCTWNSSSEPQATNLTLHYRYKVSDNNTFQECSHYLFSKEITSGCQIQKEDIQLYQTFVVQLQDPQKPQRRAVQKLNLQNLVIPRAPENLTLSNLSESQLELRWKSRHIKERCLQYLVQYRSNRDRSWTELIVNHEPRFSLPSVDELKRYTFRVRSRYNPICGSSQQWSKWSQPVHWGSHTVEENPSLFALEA

B1: PD1-IL7-VAR20 (G85K) (other)
light: DIVMTQSPDSLAVSLGERATINCKASESVDTSDNSFIHWYQQKPGQSPKLLIYRSSTLESGVPDRFSGSGSGTDFTLTISSLQAEDVAVYYCQQNYDVPWTFGQGTKVEIKRTVAAPSVFIFPPSDEQLKSGTASVVCLLNNFYPREAKVQWKVDNALQSGNSQESVTEQDSKDSTYSLSSTLTLSKADYEKHKVYACEVTHQGLSSPVTKSFNRGEC
heavy 1: EVQLLESGGGLVQPGGSLRLSCAASGFSFSSYTMSWVRQAPGKGLEWVATISGGGRDIYYPDSVKGRFTISRDNSKNTLYLQMNSLRAEDTAVYYCVLLTGRVYFALDSWGQGTLVTVSSASTKGPSVFPLAPSSKSTSGGTAALGCLVKDYFPEPVTVSWNSGALTSGVHTFPAVLQSSGLYSLSSVVTVPSSSLGTQTYICNVNHKPSNTKVDKKVEPKSCDKTHTCPPCPAPEAAGGPSVFLFPPKPKDTLMISRTPEVTCVVVDVSHEDPEVKFNWYVDGVEVHNAKTKPREEQYNSTYRVVSVLTVLHQDWLNGKEYKCKVSNKALGAPIEKTISKAKGQPREPQVCTLPPSRDELTKNQVSLSCAVKGFYPSDIAVEWESNGQPENNYKTTPPVLDSDGSFFLVSKLTVDKSRWQQGNVFSCSVMHEALHNHYTQKSLSLSPGK
heavy 2: EVQLLESGGGLVQPGGSLRLSCAASGFSFSSYTMSWVRQAPGKGLEWVATISGGGRDIYYPDSVKGRFTISRDNSKNTLYLQMNSLRAEDTAVYYCVLLTGRVYFALDSWGQGTLVTVSSASTKGPSVFPLAPSSKSTSGGTAALGCLVKDYFPEPVTVSWNSGALTSGVHTFPAVLQSSGLYSLSSVVTVPSSSLGTQTYICNVNHKPSNTKVDKKV[human IgG1 Fc with changes left out]GGGGSGGGGSGGGGSDCDIEGKDGKQYESVLMVSIDQLLDSMKEIGSNCLNNEFNFFKRHICDANKEGMFLFRAARKLRQFLKMNSTGDFDLHLLKVSEKTTILLNCTGQVKGRKPAALGEAQPTKSLEENKSLKEQKKLNDLCFLKRLLQEIKTCWNKILMGTKEH
notes: Format as m1; IL-7 with G85K; also called PD1-IL7 -G85K (Var20); P1AF5557-006
B2: Reference Molecule 6 (other)
light: B1 light
heavy 1: B1 heavy 1
heavy 2: EVQLLESGGGLVQPGGSLRLSCAASGFSFSSYTMSWVRQAPGKGLEWVATISGGGRDIYYPDSVKGRFTISRDNSKNTLYLQMNSLRAEDTAVYYCVLLTGRVYFALDSWGQGTLVTVSSASTKGPSVFPLAPSSKSTSGGTAALGCLVKDYFPEPVTVSWNSGALTSGVHTFPAVLQSSGLYSLSSVVTVPSSSLGTQTYICNVNHKPSNTKVDKKV[human IgG1 Fc with changes left out]GGGGSGGGGSGGGGSDSDIEGKDGKQYESVLMVSIDQLLDSMKEIGSNCLNNEFNFFKRHISDANKEGMFLFRAARKLRQFLKMNSTGDFDLHLLKVSEGTTILLNSTGQVKGRKPAALGEAQPTKSLEENKSLKEQKKLNDLCFLKRLLQEIKTSWNKILMGTKEH
notes: Format as m1; IL-7 SS2 (C2S/C141S, C47S/C92S); also called P1AF9648-033

Tests used:
[1] = target: T1, IL-7Rα/IL-2Rγ on human T cells; test: cell-based or functional assay
human PD-1 on T cells [2] = target: T3, human PD-1 on T cells (human, UniProt Q15116 25-288); test: cell-based or functional assay
[3] = target: T2, murine IL7Ra-IL2Rg-Fc biotin; test: SPR, captured via anti-P329G
Description: (§1) Surface Plasmon Resonance (SPR) experiments were performed on a Biacore 8 K with HBS-EP + 1 mg/ml BSA as running buffer. Anti-P329G Fc specific antibody (Roche internal) was directly immobilized by amine coupling on a C1 chip (Cytiva). The PD1-IL7 constructs were captured for 140 s at 5 nM. […] The dissociation phase was monitored for 800 s and triggered by switching from the sample solution to running buffer. The chip surface was regenerated after every cycle using two injections of 10 mM glycine pH 2 for 60 sec. Bulk refractive index differences were corrected for by subtracting the response obtained on the reference flow cell (containing immobilized anti P329G Fc specific IgG only). The affinity constants were derived from the kinetic rate constants by fitting to a 1:1 Langmuir binding using the Biacore evaluation software (Cytiva).
(§2) Four IL7 single variants and two IL7 double variants were compared to IL7 wild-type for binding to murine IL7 receptor (Table 19). The affinity of the IL7 variants to the IL7 receptor was determined using the recombinant heterodimer of the extracellular domains of the IL7 receptor alpha chain and the common IL2 receptor gamma chain.

[4] = target: T4, Human IL7Ra-IL2Rγ-Fc heterodimer (human, biotin on the avi tag); test: SPR, captured via anti-P329G, receptor-Fc 2.34-300 nM, 1:1 fit
T4 construct: Extracellular domains of IL-7Ralpha and IL-2Rgamma fused to Fc knob and Fc hole; also called hu IL7Ra-IL2Rγ-Fc avi biotin; human IL7Ra-IL2Rg-Fc biotin
Description: as §1
as §2, with “human” for “murine”, “17).” for “19).”

[5] = target: T5, cynomolgus IL7Ra-IL2Rg-Fc biotin (cynomolgus, UniProt P13232;Q29615); test: as above
T5 construct: extracellular domain; Heterodimer of the ECD of IL7Ra and IL2Rg chains fused to an Fc; also called cynomolgus IL7Ralpha-IL2Rgamma-Fc heterodimer; cynomolgus IL7 receptor
Description: as §1
as §2, with “cynomolgus” for “murine”, “18).” for “19).”

[6] = target: T4, Human IL7Ra-IL2Rγ-Fc heterodimer; test: SPR, captured from supernatant, 800 nM receptor-Fc single injection
Summary of the method: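 Single-injection SPR: 800 nM hu IL7Ra-IL2Rγ-Fc (ECDs fused to Fc, HEK-expressed, Protein A/SEC-purified) flowed 240 s over PDI-IL7 captured via anti-Fc antibody (100 nM, 120 s), then 360 s dissociation in HBS-EP+. Outputs: binding-to-capture ratio and koff fitted to dissociation, reference flow cell subtracted.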

[7] = target: T4, Human IL7Ra-IL2Rγ-Fc heterodimer; test: SPR (Example 2.4), captured via anti-P329G, receptor-Fc 2.34-300 nM, 1:1 fit, single value
Description: as §1, with “SPR” for “Surface Plasmon Resonance (SPR)”

human PD-1 on T cells [8] = target: T3, human PD-1 on T cells; test: cell-based or functional assay; remark: listed apart in the source
T3 sequence (Q15116 25-288 limits assumed): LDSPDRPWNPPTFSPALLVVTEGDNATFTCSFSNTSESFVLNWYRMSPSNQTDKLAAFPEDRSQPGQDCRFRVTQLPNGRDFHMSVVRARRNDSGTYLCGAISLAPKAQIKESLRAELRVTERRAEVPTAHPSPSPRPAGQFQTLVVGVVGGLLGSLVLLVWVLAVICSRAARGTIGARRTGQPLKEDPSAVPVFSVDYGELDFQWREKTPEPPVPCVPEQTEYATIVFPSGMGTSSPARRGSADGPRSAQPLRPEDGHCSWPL

[9] = target: T1, IL-7Rα/IL-2Rγ on human T cells; test: cell-based or functional assay; remark: listed apart in the source
[10] = target: T4, Human IL7Ra-IL2Rγ-Fc heterodimer; test: SPR (Example 2.4), captured via anti-P329G, receptor-Fc 2.34-300 nM, 1:1 fit
Description: as §1, with “SPR” for “Surface Plasmon Resonance (SPR)”
Four IL7 single variants, two IL7 double variants and IL7 wild-type were compared to four reference molecules with modified IL7 for binding to human IL7 receptor (Table 23). The affinity of the IL7 variants to the IL7 receptor was determined using the recombinant heterodimer of the extracellular domains of the IL7 receptor alpha chain and the common IL2 receptor gamma chain.

Binder | fold increase in EC50, EC50 [PD1+]/EC50 PD1-IL7wt [PD1+] [1] [fold] | fold increase in EC50, EC50 [with PD1bl]/EC50 [PD1+] (human PD-1 on T cells [2]) [fold] | binding result [3] | Kd [4] [µM] | koff [4] [s⁻¹] | kon [4] [M⁻¹ s⁻¹] | Kd [5] [µM] | koff [5] [s⁻¹] | kon [5] [M⁻¹ s⁻¹] | koff [6] [s⁻¹] | Kd [7] [µM] | koff [7] [s⁻¹] | kon [7] [M⁻¹ s⁻¹] | STAT5-P activity, PD-1 pre-blocked versus PD-1+ T cells (human PD-1 on T cells [8]) [fold] | STAT5-P Area (PD1+) [9] | STAT5-P Area (PD1 blocked) [9] | Kd [10] [µM] | koff [10] [s⁻¹] | kon [10] [M⁻¹ s⁻¹]
B1 | 9.3 | 25000 | no binding (tested: 2.34 to 300 nM receptor-Fc) | 0.0758 | 0.0143 | 189000 | 0.142 | 0.051 | 360000 | 0.00741 | 0.116 | 0.0196 | 170000 |  |  |  |  |  | 
B2 |  |  |  |  |  |  |  |  |  |  |  |  |  | > 60 | 62.5 | 15.3 | 0.0141 | 0.00141 | 101000
